The inconclusive results got no clear call from the source; some entries with a clear call stand among them for comparison. For some assays here: Potencies of inconclusive entries are doubtful fits and often do not repeat. Activity calls are given as the source filed them. Unless noted, calls come from the whole dose curve; as a rule, active = well fitted curve in the direction sought with a large enough effect; inconclusive = small, poorly fitted or top-dose-only effect, or another doubt; inactive = no such curve, though single readings can be large; an effect the other way counts as inactive or inconclusive.
Key:
[1] = Primary qHTS for inhibitors of nuclear receptor binding SET domain protein 2 (NSD2) in an isogenic RCH-ACV NSD2 p.E1099K mutant (9B) (AID 1645876); note: nearly all actives have a fitted effect of over 70% in size
[2] = NCATS anti-infectives library activity on the primary C. elegans qHTS viability assay (AID 1745855; calls by dose curve)
Procedure, shortened: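 Titration-based screen in worms: eggs hatched overnight in M9, L1 larvae fed TOP10 capsules in S medium with compound, incubated 21 °C for 7 days; fluorescent objects gated by size and intensity at days 0, 3 and 7.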

[3] = Primary fluorescence-based thiol-reactive (MSTI) qHTS assay for identification of artifact compounds. (AID 1845221);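 note: thiol-reactive compounds lower the probe fluorescence signal; nearly all actives have a fitted effect of over 65% in size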
Procedure, shortened: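 Curve-fitted percent inhibition (4-parameter Hill) derived from fluorescence, Ex 525/Em 598 nm, scaled with Acetyl-MSTI and MSTI; 1 h incubation at room temperature.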

[4] = target: Phospholipid hydroperoxide glutathione peroxidase GPX4 (Homo sapiens) (UniProt P36969); assay: Primary qHTS Assay for Inhibitors of Recombinant Selenoprotein Glutathione Peroxidase 4 (GPX4) (AID 1845192); note: nearly all actives have a fitted effect of over 65% in size
Procedure, shortened: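 qHTS, GR-coupled: GPX4 200 nM + cpd 30 min RT → GSH 1 mM, NADPH 0.5 mM, GR 100 nM → CHP 0.5 mM start; fluor 340/450 at t0 and t15 min; no-enzyme wells as control.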
Potency is the fitted concentration of half-maximal effect; tags give direction and shape of the fitted curve.

Sequence of UniProt P36969 (P36969 whole entry, looked up): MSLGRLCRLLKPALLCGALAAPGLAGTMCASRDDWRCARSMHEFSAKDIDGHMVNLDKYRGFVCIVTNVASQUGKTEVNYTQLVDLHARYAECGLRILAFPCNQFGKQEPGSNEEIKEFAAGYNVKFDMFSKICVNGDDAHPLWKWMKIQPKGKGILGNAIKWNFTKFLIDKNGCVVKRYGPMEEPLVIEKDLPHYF

Structure (SMILES)	Potency [1]	Potency [2]	Potency [3]	Potency [4]
Cc1sc2c(c1C)C(c1ccc(Cl)cc1)=N[C@@H](CC(=O)OC(C)(C)C)c1nnc(C)n1-2	active: 0.372 µM	active: 4.09 µM		
CN1C(=O)N(c2ccc(C#N)c(C(F)(F)F)c2)C(=O)[C@@]1(CO)c1ccccc1	inconclusive: 9.16 µM [inhibitor, partial curve, poor fit]		inactive	
CCOP(=O)(OCC)Oc1ccc2c(C)cc(=O)oc2c1	inconclusive: 23 µM [inhibitor, partial curve]			inconclusive: 14.3 µM [inhibitor, partial curve, poor fit]
C=C(C)[C@@H]1[C@H]2OC(=O)[C@H]1[C@]1(O)C[C@H]3O[C@]34C(=O)O[C@H]2[C@]14C	inactive		inactive	inactive
COCC1OC(=O)c2coc3c2C1(C)C1=C(C3=O)C2CCC(=O)C2(C)CC1O (configuration not stated)	inactive		inconclusive: 18.5 µM [inhibitor, partial curve, poor fit]	
CC(C)(O)[C@H]1O[C@H]2CC[C@@]3(C)[C@@](O)(CC[C@H]4Cc5c([nH]c6ccccc56)[C@@]43C)C2=CC1=O	inconclusive: 14.2 µM [inhibitor, single point]		inconclusive: 9.22 µM [inhibitor, partial curve]	
C=CC(C)(C)C12C=C(O)C(=O)N3/C(=C\c4cnc[nH]4)C(=O)NC31N(OC)c1ccccc12 (configuration not stated)	inconclusive: 14.2 µM [inhibitor, single point]		active: 4.12 µM	
C[C@H]1CCC[C@H](O)CCC/C=C/c2cc(O)cc(O)c2C(=O)O1	active: 14.5 µM			inconclusive: 36 µM [inhibitor, partial curve, poor fit]
